This is an account of results in PubChem BioAssay AID360 (National Center for Advancing Translational Sciences (NCATS), 2006).

The campaign covered roughly 48,000 compounds. About 550 (1.1%) were called active. About 4% were inconclusive and are not listed. No stated cut-off is given here; in the data, active means potency below about 15 µM; inconclusive means mostly about 16 µM to 33 µM; inactive means weaker than that. Some of the results follow.
Potency means the concentration at half of the fitted maximal effect.

UniProt P04062, sequence (P04062 whole entry, looked up): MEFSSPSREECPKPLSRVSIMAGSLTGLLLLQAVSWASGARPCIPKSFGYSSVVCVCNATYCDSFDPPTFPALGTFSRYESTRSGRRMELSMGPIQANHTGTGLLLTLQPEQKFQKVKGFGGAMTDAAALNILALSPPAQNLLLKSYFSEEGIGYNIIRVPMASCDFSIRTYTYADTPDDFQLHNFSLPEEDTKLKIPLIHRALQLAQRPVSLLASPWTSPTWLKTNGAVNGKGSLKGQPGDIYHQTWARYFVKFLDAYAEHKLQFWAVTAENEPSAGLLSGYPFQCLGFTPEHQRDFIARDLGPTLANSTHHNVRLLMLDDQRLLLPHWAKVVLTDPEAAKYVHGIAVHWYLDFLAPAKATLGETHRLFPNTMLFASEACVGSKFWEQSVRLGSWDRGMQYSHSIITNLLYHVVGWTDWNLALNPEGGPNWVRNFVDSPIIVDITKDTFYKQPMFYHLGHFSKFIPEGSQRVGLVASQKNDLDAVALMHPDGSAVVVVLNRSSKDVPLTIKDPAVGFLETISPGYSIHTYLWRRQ

The assay deals with Lysosomal acid glucosylceramidase (Homo sapiens) (UniProt P04062). In words: Glucocerebrosidase.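 Further: the screen sought inhibitors.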 The conditions noted are these: purified enzyme, resorufin glucoside fluorescence (screen aimed at inhibitors), 20 min; series mostly up to 77 µM. The method, boiled down:
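Compounds titrated against 0.2 nM normal enzyme, 30 uM resorufin beta-D-glucopyranoside substrate, citrate/phosphate buffer with taurocholate and tween-20, pH 5.9. Reaction ran 20 min at room temperature; fluorescence (Ex 548/Em 600) gave AC50.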
On to `O=C(CSCc1ccc(Cl)cc1)c1ccco1`, for which the Potency is inactive: > 76.9 µM. The same measure for `C=CCOc1ccc(/C(O)=C2\C(=O)C(=O)N(CCCOC)C2c2ccc(O)c(OC)c2)cc1` (stereo unspecified): inactive: > 76.9 µM; for `CN(CCC#N)CC(=O)Nc1ccc(NC(=O)CN(C)CCC#N)cc1`: inactive: > 76.9 µM. The same measure for `CCCCC(=O)Nc1ccc2c(c1)OCCO2`: inactive: > 76.9 µM; for `Cc1ccc(C(=O)CSc2nc3cccnc3n2C)cc1`: inactive: > 76.9 µM.

With `CCC(C)(NC(=O)CNC(C)=O)C(=O)NC1CCCCC1` (stereo unspecified), the Potency is inactive: > 76.9 µM.

`CCn1c(SCC(N)=O)nnc1-c1ccco1`: the Potency is inactive: > 76.9 µM. The same measure for `CCOc1ccc(-c2nnc(-c3snc(-c4ccc(F)cc4)c3N=CN(C)C)o2)cc1`: inactive: > 76.9 µM; for `CCOC(=O)c1cc2sccc2n1CC(=O)N1c2ccccc2CC1C` (stereo unspecified): inactive: > 76.9 µM; for `Cc1cc(N2C(=O)C(O)=C(C(=O)c3ccco3)C2c2cccnc2)no1` (stereo unspecified): inactive: > 76.9 µM. Under `COC(=O)c1sc(=S)sc1C(=O)OC` stands inactive: > 76.9 µM; under `CCOc1ccc(CN(CCO)CCO)cc1C(=O)OC`, inactive: > 76.9 µM. The same measure for `COc1ccc(CCNS(=O)(=O)c2ccc(S(=O)(=O)N3CCCC3)cc2)cc1OC`: inactive: > 76.9 µM; for `Cc1noc(C)c1CSc1nc2ccccc2n1C`: inactive: > 76.9 µM. Turning to `CCc1cccc(NC(=O)Nc2cccs2)c1`, the Potency is inactive: > 76.9 µM.

Regarding `O=C1CC2CS(=O)(=O)CC2N1c1ccc(Oc2ccccc2)cc1` (stereo unspecified), the Potency is inactive: > 76.9 µM. The same measure for `CC1(C)CC(=O)C2=C(C1)OC(N)=C(C#N)C21CCN(Cc2ccccc2)CC1`: inactive: > 76.9 µM; for `Cc1cc(-n2c(C)cc(C(=O)CN3C(=O)NC4(CCCCCC4)C3=O)c2C)no1`: inactive: > 76.9 µM. The same measure for `O=C1c2cccnc2C(O)N1Cc1cccs1` (stereo unspecified): inactive: > 76.9 µM. Under `Cc1nnc(SCCn2c(N3CCCCC3)nc3c2c(=O)[nH]c(=O)n3C)s1` stands inactive: > 76.9 µM.

With `CC(=O)Nc1cccc(NC(=O)c2cc(C)on2)c1`, the Potency was inactive: > 76.9 µM. Regarding `Cc1ccc(S(=O)(=O)NC(=O)N2CCCC(C)(C)C2)cc1`, the Potency was inactive: > 76.9 µM. The same measure for `COC(=O)c1cc(CSc2nnc(NC3CCCCC3)s2)oc1C`: inactive: > 76.9 µM; for `CCOc1ccccc1NC(=O)CSc1nnc(-c2ccccc2Cl)n1Cc1ccco1`: inactive: > 76.9 µM. Under `CCC(=O)c1ccc(OCC(=O)N2CCc3cc(OC)c(OC)cc3C2)cc1` stands inactive: > 76.9 µM; under `CS(=O)(=O)Nc1ccccc1C(=O)N1CCCC1`, inactive: > 76.9 µM.
